Results: PubChem BioAssay AID1159614 (National Center for Advancing Translational Sciences (NCATS), 2016)
Screen size: about 45,000 compounds; about 65 (0.1%) were called active. Calls come from the whole dose curve; as a rule, active = well fitted activation curve with a large enough effect; inconclusive = small, poorly fitted or top-dose-only effect; inactive = no such curve, though single readings can be large or run the other way. The list shows a part of the results.

The molecules below were run against Galactocerebrosidase (Homo sapiens) (UniProt P54803) (assay: A Novel Cell-Based Assay to Identify Small Molecules for B -Galactocerebrosidase). Details: 145M-Twi-hGALC-G270D cells (Twitcher mouse brain line with human GALC G270D), HMU-beta-Gal fluorescence, 48 h; series mostly up to 57.5 µM; activation: at the top concentration.
Sequence of UniProt P54803 (P54803 whole entry, looked up): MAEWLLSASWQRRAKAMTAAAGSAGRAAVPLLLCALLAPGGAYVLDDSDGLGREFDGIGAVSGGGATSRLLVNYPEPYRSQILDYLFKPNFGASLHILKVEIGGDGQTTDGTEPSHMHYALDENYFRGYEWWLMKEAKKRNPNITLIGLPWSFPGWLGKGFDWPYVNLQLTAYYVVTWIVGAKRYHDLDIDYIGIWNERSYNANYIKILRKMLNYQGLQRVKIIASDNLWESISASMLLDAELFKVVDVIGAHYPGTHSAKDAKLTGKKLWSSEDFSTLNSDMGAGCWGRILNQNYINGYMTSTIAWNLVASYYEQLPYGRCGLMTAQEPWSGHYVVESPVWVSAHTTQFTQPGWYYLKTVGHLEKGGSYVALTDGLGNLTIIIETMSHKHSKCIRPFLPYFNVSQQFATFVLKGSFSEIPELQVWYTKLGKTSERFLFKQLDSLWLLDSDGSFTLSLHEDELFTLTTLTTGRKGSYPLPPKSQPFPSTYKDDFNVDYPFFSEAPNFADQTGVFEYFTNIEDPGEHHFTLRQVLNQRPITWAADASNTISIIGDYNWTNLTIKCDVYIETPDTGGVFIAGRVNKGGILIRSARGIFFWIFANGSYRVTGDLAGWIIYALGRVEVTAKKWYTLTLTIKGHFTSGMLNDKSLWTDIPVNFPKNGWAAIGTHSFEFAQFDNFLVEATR
How it was run: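 Brain-derived Twitcher mouse 145M-Twi cells stably expressing human GALC-G270D or wild-type GALC, treated live, then residual GALC activity read by fluorescence of HMU-b-Gal substrate (0.1 mM final) in citrate-phosphate buffer pH 5.2 with sodium taurocholate. Signal increase indicates enhancement.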
Note: 0% is about no effect; nearly all actives have a fitted effect of over 65% in size.

activation, inactive:
Cc1ccc(C)c(CNC(=O)c2sc3ncnc(N(C)C4CCCCC4)c3c2C)c1 0.587%
COc1ccc(-c2cc3ccc(O)c(CN4CCCC4)c3oc2=O)cc1OC -28.2%
CCC1CN(C(=O)N2CCC(C(=O)N3CCN(c4cc(C)ccc4C)CC3)CC2)c2ccccc2O1 (stereo unspecified) -14.5%
CCn1c(CC2C(=O)N(C)c3ccc(Br)cc32)nc2ccccc2c1=O (stereo unspecified) -26.8%
CC(=O)Nc1ccc(Nc2ncnc3sc4c(c23)CCCC4)cc1 -11.4%
CCc1cc2c(cc3c(=O)n(CC(=O)NCCOC)nc(CC)n32)s1 -7.53%
Cc1ccc2nc(N(Cc3cccnc3)C(=O)CCOc3ccccc3)sc2c1 -5.22%
Cc1cccc(C(=O)N2CCc3cc(CNS(=O)(=O)c4cccs4)ccc32)c1 -3.5%
COc1ccc(CNC(=O)c2cn(-c3cccc(OC)c3)c(=O)c3ccccc23)cc1 -10.7%
Cc1ccc(C(=O)NC2(C(F)(F)F)N=C(c3ccccc3)N(C3CCCCC3)C2=O)cc1 (stereo unspecified) -11.5%
COc1ccc(C(=O)NCC(c2ccc3c(c2)OCO3)N2CCOCC2)cc1OC (stereo unspecified) -5.94%
CCOC(=O)c1c(C)c(-c2ccccc2)n(CC(=O)Nc2cccc(C)c2C)c1C -18.8%
COc1ccc(OC)c(NC(=O)c2c(C)oc3ncnc(N4CCOCC4)c23)c1 -2.68%
CC1CCN(C(=O)C(C)Sc2nc(-c3ccccc3)cc(C(F)(F)F)n2)CC1 (stereo unspecified) -14.3%
O=C(Cn1c(=O)n2nc(-c3cccc(F)c3)nc2c2ccccc21)N1CCN(c2ccccc2F)CC1 -3.16%
O=C(c1cccc(Cl)c1)N1CCC(c2nc3ccccc3o2)CC1 -17.9%
O=C(O)c1ccc(C2Nc3ccccc3-c3nnc(SCc4ccc(Cl)cc4)nc3O2)cc1 (stereo unspecified) -20.1%
CCCN1C(=O)C2(c3ccccc31)c1c(oc3ccccc3c1=O)C(=O)N2CCCOC(C)C (stereo unspecified) -8.08%
Cc1cccc(-c2nc(SCC(=O)N(C)c3ccccc3)c3c(=O)n(C)c(=O)n(C)c3n2)c1 -5.85%
O=C(c1ccco1)N1CCN(C(=O)c2cnn(-c3cccc(F)c3)c2C2CCNCC2)CC1 -8.7%
COc1ccccc1OCc1nc(-c2cccc(C)c2)no1 -16.9%
Cn1c(=O)cc(SCC(=O)N2CCN(c3ccccc3)CC2)c2ccccc21 -20.5%
COc1cccc(C(=O)Nc2ccc(C(=O)OCc3cc(=O)n4nc(C5CC5)sc4n3)cc2)c1 -12%
COc1cc(OC)c(NC(=O)N2CC=C(c3c[nH]c4ccccc34)CC2)cc1Cl -13.2%
CCOC(=O)C1CCN(C(=O)c2ccc3c(c2)N=C(CC)c2cc(C)ccc2S3)CC1 0.209%
Cc1ccc(-c2cc(C(F)(F)F)n3ncc(-c4ccc(Cl)cc4)c3n2)cc1 -18.3%
CC(Sc1nc2c([nH]c3ccccc32)c(=O)n1-c1ccccc1)c1ccccc1 (stereo unspecified) -0.854%
CCC(=O)N1CCc2cc(S(=O)(=O)CCC(=O)NCc3ccc(OC)cc3)ccc21 5.15%
O=C(CSc1nc2c(cnn2-c2ccc(F)cc2)c(=O)[nH]1)Nc1ccccc1C(F)(F)F -13.2%
COc1ccccc1N1CCN(C(=O)c2cc3c(=O)oc4ccccc4c3s2)CC1 -5.35%
COc1ccccc1NC(=O)C1=C(C)Nc2nc(SCc3cccc(F)c3)nn2C1c1ccc(C(=O)O)cc1 (stereo unspecified) -17.2%
COc1cccc(CNC(=O)c2cc3ccc4cccnc4c3[nH]2)c1 1.74%
Cc1ccc(C)c(NC(=O)Cn2c(=O)n(-c3ccc(CC(=O)NCC4CCCO4)cc3)c(=O)c3ccccc32)c1 (stereo unspecified) -9.03%
Cc1ccc(OCC(=O)NCC2(N(C)C)CCCCC2)cc1C -15.2%
CCCCC(CC)COC(=O)c1ccccc1O (stereo unspecified) -2.46%
O=C(CCN1CCN2CCCC2C1)N1c2ccccc2Sc2ccc(Cl)cc21 (stereo unspecified) -12.5% [at 23.8 µM]
C[C@@H](C1=C(CCN(C)C)Cc2ccccc21)c1ccccn1 -15.5%
CC1CN(C(=O)CCC(=O)Nc2cc(F)ccc2F)c2ccccc2S1 (stereo unspecified) -15.6%
O=C(O)c1c(O)c(-c2ccccc2)nc2ccccc12 -13.8%
Cc1ccc(CNc2oc(-c3ccc(COc4ccc(C)cc4)o3)nc2C#N)cc1 -12.2%
CCCOc1ccc(C(=O)NCC2OCCc3ccccc32)cc1 (stereo unspecified) -14.4%
Cc1ccc(NC(=O)c2c(C)nc3sc(C(=O)Nc4ccc(F)cc4)c(N)c3c2-c2ccc(C)o2)c(C)c1 -13.5%
CCc1ccc(CNC(=O)c2cc3ccccn3n2)cc1 -20.2%
CCOC(=O)C1CCCN(C(=O)Cn2ncc3c(C)n(Cc4ccccc4Cl)c(C)c3c2=O)C1 (stereo unspecified) -1.43%
CCCc1nc2ccccc2n1CC(O)COc1ccc(C(=O)OC)cc1 (stereo unspecified) -30.7%
COc1ccc(C(=O)Nc2ccc3oc(-c4ccc(F)cc4Cl)nc3c2)cc1 9.19%
COc1ccc(-n2c(SCC(=O)N3CCc4ccccc43)nc3c([nH]c4ccccc43)c2=O)cc1 -18.5%
COc1ccccc1CNc1cc(C)nc2nc(-c3ccc(C)cc3)nn12 -25.4%
COc1ccc(-c2nc(C)c(CCNC(=O)c3cccs3)s2)cc1OC -24.9%
CC(C)(C)OC(=O)N1CCC(c2c(C(=O)N3CCN(c4ccccn4)CC3)cnn2-c2ccccc2)CC1 -7.25%
Cc1ccc2nc(NC(=O)CSc3nccn3-c3ccc(Cl)cc3)sc2c1 -16%
CCN(CCCc1ccccc1)CCCc1ccccc1 -19.4%
O=C(CSc1nnc(-c2ccccc2F)o1)Nc1cccc(C(F)(F)F)c1 -10%
O=C(Nc1ccc(Cl)cc1F)c1cnc2sc(N3CCOCC3)nn2c1=O -13.4%
CCC1CCCCN1S(=O)(=O)c1ccc(C(=O)Nc2sc3c(c2C(N)=O)CCC3)cc1 (stereo unspecified) -32.8%
COc1ccc(C2C(C(=O)Nc3ccc(Cl)cc3)=C(C)Nc3nc(SCc4cccc(C)c4)nn32)cc1OC (stereo unspecified) 2.45%
COCCCN1C(=O)c2ccccc2CC1(C)C(=O)NC1CCCCC1 (stereo unspecified) -6.59%
Cc1cccc(Cn2c(SCc3ccc(C(=O)NCc4ccccc4F)cc3)nc3ccncc32)c1 -9.34%
Cc1ccc(NC(=O)Cn2c(=O)oc3cc(S(=O)(=O)N4CCCCC4)ccc32)c(Cl)c1 -39.1%
c1ccc(-c2noc(-c3cccnc3NCc3ccco3)n2)cc1 -0.894%
COCCNC(=O)Cn1c(=O)n(CCCCCC(=O)NCc2ccccc2Cl)c(=O)c2sccc21 -23%
COc1ccc(CN(C(=O)c2cc3ccccc3oc2=O)C2CCS(=O)(=O)C2)cc1OC (stereo unspecified) -20.8%
CC(C)(C)C1CCc2c(sc3nc(-c4cc5ccccc5oc4=O)[nH]c(=O)c23)C1 (stereo unspecified) -15.8%
Cc1c(-c2cccc(NC(=O)Nc3ccc(Cl)cc3)c2)nc2ncccn12 -10.6%
COc1ccccc1-c1noc(-c2ccc(NC3CCCCC3)c([N+](=O)[O-])c2)n1 4.2%
CC1CCCCN1C(=O)Cn1ncc2c3ccccc3n(Cc3ccccc3F)c2c1=O (stereo unspecified) -10.6%
CCN(CC)CCCNC(=O)CCCn1ncn2c(cc3occc32)c1=O -3.72%
O=c1c(=O)n(Cc2ccc(Cl)cc2)ccn1Cc1ccc(F)cc1 19.3%
COCCCNC(=O)c1cnc2sc(N3CCCCCC3)nn2c1=O -4.4%
Cc1ccc2c(c1)-c1c(cnn1CC(=O)N1CCN(c3ccccc3F)CC1)CO2 -8.69%
CCCCN(CCCNC(=O)CN1N=C(c2ccc(C)cc2)CCC1=O)c1ccccc1 -2.17%
COc1cccc(NC(=O)CCc2nc3c(C)nn(-c4ccc(C)cc4)c3n(C)c2=O)c1 -18.2%
CCN(CC)C(=O)CSc1nc2ccsc2c(=O)n1Cc1ccccc1Cl -35.5%
CCc1nc2cccnc2n1-c1ccc(CC(=O)Nc2c(C)cccc2C)cc1 -4.07%
Cc1cc(C)n2c(Nc3ccc(C(C)C)cc3)c(-c3ccsc3)nc2n1 -10.4%
Cc1oc2ncn(CC(C)C)c(=O)c2c1C(=O)NCCc1ccccc1 -34.7%
COc1cccc(OCC(=O)NCCS(=O)(=O)N2CCN(c3ccccc3F)CC2)c1 -4.51%
COc1ccc(-c2cn3cccnc3n2)cc1NC(=O)Cc1ccccc1 -18.4%
Cc1ccc(-c2nc(CNC(=O)Nc3ccccc3)c(C)o2)cc1 0.629%
CCOc1ccc(CNC(=O)CC(C)n2nc(C)cc2C)cc1OC (stereo unspecified) -25.2%
Cc1ccc2c(c1)c1c(c(=O)n(-c3ccccc3)c(=O)n1CC(=O)c1ccc(F)cc1)n2C -13.3%
CC1=C(C(=O)Nc2ccc(C)cc2C)C(c2ccc(C(=O)O)cc2)n2nc(SCc3ccccc3)nc2N1 (stereo unspecified) -6.5%
COc1ccc(OC)c(CNC(=O)c2cnc3c(C)cccn3c2=O)c1 -15.2%
CCc1cccc(NC(=O)Cn2c(=O)n(-c3cccc(Cl)c3)c(=O)c3c2c2cc(C)ccc2n3C)c1 3.51%
Cn1c(SCC(=O)N2CCCc3ccccc32)ncc(C(=O)Nc2ccccc2)c1=O -35.4%
CCc1nn2c(=O)cc(COC(=O)c3ccc(NC(=O)COc4ccc(C)cc4)cc3)nc2s1 -13.2%
Cc1ccc(NC(=O)c2ccc(CN3CC(=O)N4CCCCC4C3=O)cc2)cc1 (stereo unspecified) -18.4%
Cc1ccccc1C(=O)Nc1cccc(C(=O)OCc2cc(=O)n3ccsc3n2)c1 -19.9%
Cc1ccc2[nH]c(=O)c(CN(C(=O)c3cccc(Cl)c3)C(C)(C)C)cc2c1 -11.2%
CSc1ccc(Cn2nnc(C(=O)Nc3ccc(C)cc3Cl)c2N)cc1 26%
Cc1ccc(C(=O)COC(=O)C(Cc2c[nH]c3ccccc23)NC(=O)c2ccc(C(C)(C)C)cc2)cc1 (stereo unspecified) -16.3%
CCN(c1ccccc1)S(=O)(=O)c1ccc(-c2cc(C)no2)s1 -6.96%
CCOC(=O)C(C)Sc1nc(-c2ccccc2Cl)cc(-c2ccccc2)c1C#N (stereo unspecified) -11.9%
Cc1cc(C)cc(NC(=O)CSc2nc(=O)n(Cc3ccccn3)c3c2CCC3)c1 -9.06%
CC(C)CC(=O)Nc1cc(-c2ccccc2F)nn1-c1ccccc1 -14%

Potency, inactive:
CC[C@]1(O)C[C@@H]2CN(CCc3c([nH]c4ccccc34)[C@@](C(=O)OC)(c3cc4c(cc3OC)N(C)[C@H]3[C@@](O)(C(=O)OC)[C@H](OC(C)=O)[C@]5(CC)C=CCN6CC[C@]43[C@@H]65)C2)C1
